Each structure is given as a SMILES string. Among all 43,000 compounds or so, about 200 (0.47%) were called active. Roughly 12% stayed inconclusive and do not appear here. Calls follow the shape of the dose curve; as a rule, active = well fitted cell-killing curve with a large enough effect; inconclusive = small, poorly fitted or top-dose-only effect, or effect the other way; inactive = flat fitted curve, though single readings scatter. Some of the results follow.
% is scaled to controls: 0 for no effect and ±100 for the full control effect.

The assay is described as follows: Cell viability qHTS assay in S16 Pmp22-F2sN cells. Also: nearly all actives have a fitted effect of over 65% in size. To be noted: S16 Pmp22-F2sN Schwann cells viability, CellTiter-Glo, 24 h; series mostly up to 57.5 µM; activity change, negative = cytotoxicity: at the top concentration. Put shortly:
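S16 Pmp22-F2sN Schwann cells (500-1,000/well) in phenol-red-free DMEM with 10% FBS received 23 nL compound by pin tool for 24 h at 37 °C. Viability was then read as CellTiter-Glo luminescence after 15 min at room temperature.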
A general note: qHTS replaces the single test concentration by a dilution series.
For `CCOC(=O)c1c(-c2ccc(OC)cc2)oc2ccc(OCc3ccccc3C)cc12`, the “activity change, negative = cytotoxicity” value is inactive: 4.77%. Next, `CCOC(=O)c1c(C)[nH]c(C)c1S(=O)(=O)N1CCCC(C(=O)NCc2cccc(C)c2)C1` (stereo unspecified): inactive: -0.485%. As to `Cc1cccn2c(=O)c(C(=O)NCc3ccc(F)cc3)c(O)nc12`, the “activity change, negative = cytotoxicity” value was inactive: 21.3%. Next, `COc1ccc(-c2nc3ccc(NS(=O)(=O)c4ccc(C)cc4)cc3o2)cc1`: inactive: -14.6%; `CCCOc1cccc(C(=O)Nc2cccc3cccnc23)c1`: inactive: 8.42%. The value for `CCN(C(=O)c1nn(-c2ccc(OC)c(Cl)c2)c(=O)c2c1c1ccccc1n2C)c1cccc(C(F)(F)F)c1` was inactive: 1.26%.

As for `O=C(CN1C(=O)COc2ccc(Cl)cc21)Nc1ccc(F)cc1`, the “activity change, negative = cytotoxicity” value is inactive: 8.54%. Next, `O=C(CCC(=O)N1CC2CCCN2c2ccccc21)NCc1ccc(Cl)cc1` (stereo unspecified): inactive: -0.329%. Next, `CCC1CCC(C(=O)NC(C(=O)Nc2cccc(OC)c2)C(C)C)CC1` (stereo unspecified): inactive: -2.35%; `CCOc1ccc(CNCc2c(C(=O)O)c(C)n(Cc3cccc(OC)c3)c2C)cc1OC`: inactive: 8.45%; `Cc1cccc(NC(=O)CSc2nnc3[nH]c(=O)cc(-c4ccccc4)n23)c1C`: inactive: -18.3%. The value for `Cc1cc(CN2CCN(c3ccccc3F)CC2)cs1` was inactive: 0.139%; that for `Cc1ccc(Cn2c(C(=O)NCc3ccccc3Cl)cc3sccc32)cc1` was inactive: 17.4%; that for `CCC1=C(c2ccc(C)cc2)S(=O)(=O)N=C1N1CCC(C(=O)Nc2ccccc2F)CC1` was inactive: 1.57%. Regarding `Cc1ccc(NC(=O)Cn2ncn3c(cc4ccccc43)c2=O)cc1F`, the “activity change, negative = cytotoxicity” value was inactive: -3.23%.

Regarding `Cc1nc2sccn2c(=O)c1S(=O)(=O)Nc1ccc(N2CCOCC2)c(Cl)c1`, the “activity change, negative = cytotoxicity” value was inactive: -16.5%.

With `COc1ccc(OC)c(NC(=O)CN(C)S(=O)(=O)c2ccc3[nH]c4c(c3c2)CCCC4)c1`, the “activity change, negative = cytotoxicity” value was inactive: -12.8%. The value for `CCC(=O)N1CCc2cc(S(=O)(=O)CCC(=O)N3CCN(c4cc(C)ccc4C)CC3)ccc21` was inactive: 13.8%; that for `COc1cccc(NC(=O)CSc2nc3ccccc3n2C)c1` was inactive: 0.409%; that for `CCOc1ccc(NC(=O)c2c(NCc3ccc(C)o3)sc3c2CCC(C)C3)cc1` (stereo unspecified) was inactive: 4.19%.

As to `Cc1nnc(N2CCC(C(=O)NC3CCCCC3)CC2)c2nn(-c3ccc(Cl)cc3)c(C)c12`, the “activity change, negative = cytotoxicity” value is inactive: -2.29%. As to `CCOc1ccc(C(=O)NCC(c2ccc3c(c2)OCO3)N2CCN(c3ccccc3F)CC2)cc1` (stereo unspecified), the “activity change, negative = cytotoxicity” value is inactive: -14.2%. The value for `COc1ccc(OC)c(CCNC(=O)c2c(C)nn(-c3ccc(F)cc3)c2-n2cccc2)c1` was inactive: -2.28%. For the compound `COc1ccc(Cn2nnc(C(=O)Nc3cc(OC)ccc3OC)c2N)cc1`, the “activity change, negative = cytotoxicity” value is inactive: -17.5%. Next, `COCCCNC(=O)C1CCN(Cc2nc(-c3ccc(OC)c(OC)c3)oc2C)CC1`: inactive: 15.3%. The value for `Cc1ccc(NC(=O)Cn2c(=O)n(Cc3ccco3)c(=O)c3ccc(C(=O)NC4CCCC4)cc32)c(C)c1` was inactive: 5.27%; that for `Cc1ccc(C)c(CN2C(=O)c3ccccc3S(=O)(=O)c3ccc(C(=O)N4CCN(c5ccccn5)CC4)cc32)c1` was inactive: -17.5%; that for `COc1cc(NC(=O)CN2C(=O)COc3ccc(S(=O)(=O)N4CCCCC4)cc32)cc(OC)c1` was inactive: 4.01%. As for `CCc1cccc(N2C(=O)N(CC(=O)NCc3cccc(OC)c3OC)c3ccccc3S2(=O)=O)c1`, the “activity change, negative = cytotoxicity” value was inactive: 14.3%. Next, `CCCN1C(=O)C(Cc2nc3ccccc3c(=O)n2-c2ccccc2)c2cc(C)ccc21` (stereo unspecified): inactive: -23.3%; `COc1ccc(C)cc1Nc1nc2cc(Cl)c(Cl)cc2nc1-n1nc(C)cc1C`: inactive: -5.16%. With `C=Cc1ccc(CN2C(=O)N(c3ccc(CC)cc3)S(=O)(=O)c3ccccc32)cc1`, the “activity change, negative = cytotoxicity” value is inactive: 13.7%. The value for `COc1ccc(C)cc1NC(=O)CSc1nc(=O)n(Cc2ccncc2)c2c1CCC2` was inactive: -19.1%.

For `COc1ccc(C)cc1NC(=O)NCc1ccc2c(c1)CCN2C(=O)c1ccccc1`, the “activity change, negative = cytotoxicity” value is inactive: -23.8%. Consider `Cc1ccc(NC(=O)Cn2c(=O)n(-c3ccccc3)c(=O)c3c4c(sc32)CCCC4)cc1`, for which the “activity change, negative = cytotoxicity” value was inactive: 24.2%. For `O=C(CSc1ncc2c(n1)-c1ccccc1N(Cc1ccccc1)S2(=O)=O)Nc1ccccc1`, the “activity change, negative = cytotoxicity” value is inactive: 0.231%. The value for `COCCNC(=O)c1ccc(CSc2nc3ccncc3n2Cc2ccccc2)cc1` was inactive: 5.84%; that for `COC(=O)c1ccc(OCC2c3cc(OC)c(OC)cc3CCN2C(=O)C(C)C)cc1` (stereo unspecified) was inactive: -11.2%; that for `CCOC(=O)COc1ccc(C)cc1C(=O)c1ccn2nc(-c3ccc(C)cc3)cc2n1` was inactive: 14.3%. On to `Cc1ccc2c(c1)NC(=O)C(CC(=O)Nc1ccccc1Cl)O2` (stereo unspecified), for which the “activity change, negative = cytotoxicity” value is inactive: 17.8%.

Turning to `Cc1ccc(Nc2nnc(-c3ccc(C)c(S(=O)(=O)N4CCOCC4)c3)c3ccccc23)c(C)c1`, the “activity change, negative = cytotoxicity” value is inactive: 0.717%. The value for `CCOc1ccc(C(=O)c2cn(Cc3ccc(Cl)cc3)c3cc(OC)c(OC)cc3c2=O)cc1` was inactive: -26.2%; that for `CCC(Cc1ccccc1)NC(=O)Cn1ncc2c3ccccc3n(Cc3ccccc3)c2c1=O` (stereo unspecified) was inactive: 17.3%. The value for `CCc1nc2nc(C)cc(Nc3ccc(OC)cc3OC)n2n1` was inactive: -17.5%; that for `Cc1ccc(Cl)cc1N1CCN(C(=O)c2cc(S(=O)(=O)N3CCCC3)cn2C)CC1` was inactive: 0.946%; that for `Cc1cc(C)n2nc(SCC(=O)Nc3ccccc3C)nc2n1` was inactive: -4.84%. Next, `COc1ccc(N2C(=O)C(CC(=O)Nc3ccc(F)cc3)N(Cc3ccc4c(c3)OCO4)C2=O)cc1` (stereo unspecified): inactive: -4.2%; `COC(=O)c1cnc(NCc2ccc(F)cc2)c2ccccc12`: inactive: -9.55%; `CCN(CC)C(=O)Cn1c(=O)nc(-c2ccccc2F)c2cc(Cl)ccc21`: inactive: 4.7%. Consider `CCCNC(=O)N1[C@H](c2ccc(C)s2)[C@@H](C)C(=O)[C@@H](C)[C@@H]1c1ccc(C)s1`, for which the “activity change, negative = cytotoxicity” value was inactive: -2.16%.

On to `COc1ccc(CC(=O)NCC(c2ccc(N(C)C)cc2)N2CCOCC2)cc1` (stereo unspecified), for which the “activity change, negative = cytotoxicity” value is inactive: -3.99%. Next, `CC(C)c1ccc(OC(=O)c2cc(-c3ccc(Cl)cc3)on2)cc1`: inactive: -16.1%; `COc1ccc(-n2c(=O)c3sc4ccccc4c3n(CC(=O)Nc3ccccc3F)c2=O)cc1`: inactive: 8.06%. The value for `O=C1c2[nH]nc(-c3ccccc3O)c2C(c2ccccc2F)N1Cc1ccncc1` (stereo unspecified) was inactive: 4.6%. Next, `CCOC(=O)Cc1ccc(NC(=O)NCc2cccn2Cc2ccccc2)cc1`: inactive: 6.07%; `CCCN1Cc2cccc(C(=O)Nc3cc(C)cc(C)c3)c2C1=O`: inactive: 0.743%. As to `CC(=O)Nc1ccc(C)cc1-c1nc2ccccc2n(CC(=O)Nc2cc(Cl)ccc2C)c1=O`, the “activity change, negative = cytotoxicity” value is inactive: 9.51%. The value for `COc1ccc(Cl)cc1NC(=O)CCC(=O)N1CCOc2ccccc21` was inactive: 0.741%; that for `COC(=O)c1ccc(Cl)cc1NC(=O)N(Cc1ccc(C)o1)C1CCN(C(C)=O)CC1` was inactive: -3.29%; that for `CCC(CC)c1nn2c(=O)cc(COc3ccc(NC(=O)c4cccc(Cl)c4)cc3)nc2s1` was inactive: 14.7%. The value for `COc1ccc(C)cc1NS(=O)(=O)c1ccc2c(c1)n(C)c(=O)n2C` was inactive: -2.33%; that for `Cc1ccc2c(c1)N(C(=O)NCc1ccccc1)CCO2` was inactive: 1.96%.

In the case of `CCC(C)NC(=O)c1ccc2c(=O)n3c(nc2c1)CCCCC3` (stereo unspecified), the “activity change, negative = cytotoxicity” value is inactive: 15.7%. Next, `Cc1ccc(NC(=O)Cn2nnc3sc(-c4ccccc4)cc3c2=O)cc1Cl`: inactive: 7.18%; `Cc1nnc2c(Nc3cccc(O)c3)nc3ccccc3n12`: inactive: -0.35%; `CCn1c(=O)c(=O)n(CC)c2cc(N3CCCCC3)c(NC(=O)c3cccc(F)c3)cc21`: inactive: -6.01%.

For the compound `CCOc1ccc(/C=C/c2nc3ccccc3n2S(=O)(=O)c2ccc(Br)cc2)cc1`, the “activity change, negative = cytotoxicity” value is inactive: -6.72%. Next, `COc1cccc(NC(=O)Cn2c(=O)n(-c3ccc(Cl)cc3)c(=O)c3sc4ccccc4c32)c1`: inactive: 1.97%; `O=C(Cn1c(=O)nc(-c2ccccc2)c2cc(Cl)ccc21)NCCc1ccc(Cl)cc1`: inactive: 10.9%; `COc1ccc(S(=O)(=O)NCC(c2ccco2)N2CCOCC2)cc1C` (stereo unspecified): inactive: -11.7%. The value for `COc1ccccc1N1CCN(S(=O)(=O)c2c(C)sc3ncn(CC(=O)Nc4ccccc4F)c(=O)c23)CC1` was inactive: 8.06%; that for `CCc1ccc(-c2[nH]nc3nc(-c4ccc(OC)cc4)cc(C(=O)NCCc4ccc(OC)c(OC)c4)c23)cc1` was inactive: -14.4%. The value for `CCOc1ccc(NC(=O)CSc2nnc(CNC(=O)c3c(F)cccc3Cl)o2)cc1` was inactive: 2.92%. On to `CCc1ccc(NCc2cccn2-c2nnc(N3CCCCCC3)s2)cc1`, for which the “activity change, negative = cytotoxicity” value is inactive: -17.4%. For `CCOc1ccc(NC(=O)Cn2nc(-c3ccncc3)ccc2=O)cc1`, the “activity change, negative = cytotoxicity” value is inactive: 4.58%.

For the compound `O=C(c1cccc(Cl)c1)N1CCN(CCc2ccccn2)CC1`, the “activity change, negative = cytotoxicity” value is inactive: -3.24%.

Consider `O=C(NCc1nc2cccnc2n1Cc1ccc(F)cc1)c1ccccc1C(F)(F)F`, for which the “activity change, negative = cytotoxicity” value is inactive: -12.9%. In the case of `COc1ccc2nc(NC(=O)c3cc(=O)c4ccccc4o3)sc2c1`, the “activity change, negative = cytotoxicity” value was inactive: 9.05%. The value for `COc1ccc(NC(=O)Cn2c(=O)n(CCc3ccccc3)c(=O)c3ccccc32)cc1` was inactive: 20.9%; that for `Cc1noc(-c2ccc(NCc3ccccc3)c([N+](=O)[O-])c2)n1` was inactive: 0.98%. Next, `COc1cccc(CNS(=O)(=O)c2cc3c(cc2C)n(C)c(=O)c(=O)n3C)c1`: inactive: -2.7%; `Cc1ccccc1CN1C(=O)c2ccccc2Sc2ccc(C(=O)NCc3cccs3)cc21`: inactive: -20.8%. Next, `Cc1noc(/C=C/c2ccccc2F)c1S(=O)(=O)N1CCC(C(=O)N(C)Cc2ccco2)CC1`: inactive: -2.52%. `CCC(=O)N1CCc2cc(Br)cc(S(=O)(=O)N3CCCC(C(=O)NCc4ccccc4)C3)c21` (stereo unspecified): the “activity change, negative = cytotoxicity” value is inactive: 8.41%.

Take `COC(=O)c1c(N)n(-c2cc(Cl)cc(Cl)c2)c2nc3ccccc3nc12`: the “activity change, negative = cytotoxicity” value was inactive: 20%. The value for `Nc1c(-c2nc(-c3ccncc3)no2)nnn1CC(=O)Nc1ccccc1` was inactive: -2.78%. Next, `COc1ccccc1CNCCSc1nnnn1C`: inactive: 15.6%; `COc1ccc(C(=O)N(Cc2ccco2)Cc2ccco2)cc1`: inactive: 9.68%. Next, `COC(=O)c1cc2oc3ccccc3c2n1Cc1ccc(C)cc1`: inactive: 12.5%; `Cc1c(Cl)cccc1Nc1nn2c(=O)c3ccccc3nc2s1`: inactive: 5.48%.

Consider `CCOC(=O)c1cc2c(=O)n3ccccc3nc2n(Cc2ccco2)c1=NC(=O)c1ccccc1Br`, for which the “activity change, negative = cytotoxicity” value was inactive: -12.5%. The value for `COC(=O)c1cc(NC(=O)c2cc3c(-c4ccccc4F)nn(C)c3s2)cc(C(=O)OC)c1` was inactive: 23.7%; that for `COc1ccc(OC)c(S(=O)(=O)NCC(c2ccc(N(C)C)cc2)N2CCOCC2)c1` (stereo unspecified) was inactive: 8.29%.

Take `O=C(NCC(c1ccco1)S(=O)(=O)c1cccs1)c1ccccc1` (stereo unspecified): the “activity change, negative = cytotoxicity” value was inactive: -11.9%. The value for `COc1ccc(N2CCN(S(=O)(=O)c3ccc(CC(C)C)cc3)CC2)cc1` was inactive: 20.4%; that for `Cc1oc(-c2ccccc2F)nc1CS(=O)(=O)CC(=O)N1CCN(c2ccccc2)CC1` was inactive: 11.5%.

These data come from PubChem BioAssay AID1508642 (National Center for Advancing Translational Sciences (NCATS), 2021).
